# Experimental data published in PubChem BioAssay AID938 (National Center for Advancing Translational Sciences (NCATS), 2007).
# About 1,800 (2.5%) of roughly 73,000 compounds were called active. Inconclusive results, whose numbers are uncertain, are shown with a selection of clear calls. Calls come from the whole dose curve; as a rule, active = well fitted activation curve with a large enough effect; inconclusive = small, poorly fitted or top-dose-only effect; inactive = no such curve, though single readings can be large or run the other way. Potencies of inconclusive entries are left out as doubtful fits.
# Assay: qHTS Assay for Agonists of the Thyroid Stimulating Hormone Receptor: Activators of Intracellular cAMP Concentrations in Parental HEK 293; note: nearly all actives have a fitted effect of over 55% in size; for activation: % of control where 0% means no effect
# Details: parental HEK293 CNG cAMP sensor, membrane potential fluorescence; activation: at 57.1 µM (top of the series) unless noted
# In short: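 Parental HEK 293 cells stably expressing a modified CNG channel (no TSHR) report cAMP rise as membrane depolarization. Membrane potential dye with 100 uM RO 20-1724 was loaded for 60 min at room temperature, then compound added for 30 min; fluorescence read at 590 nm.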
# Potency is the fitted concentration of half-maximal effect; tags give direction and shape of the fitted curve.
SMILES,activation,Potency
Cc1cccc(CNc2cc(-c3c(C)noc3C)ncn2)c1,inactive: 23.5%,
O=C(CSc1ncnc2c1oc1ccccc12)N1CCCc2ccccc21,,active: 31.6 µM
COc1cccc(-n2c(SCC(=O)Nc3cc(C)on3)nc3ccccc3c2=O)c1,,"inconclusive [activator, single point]"
CS(=O)(=O)N1CCC(C(=O)Nc2ccccc2F)CC1,,"inconclusive [activator, single point]"
O=C1CCCC2=C1C(Cc1ccccc1)C1=C(CCCC1=O)O2,,"inconclusive [activator, partial curve]"
CCCn1c(NCc2cccc(OC)c2OC)nc2ccccc21,,"inconclusive [activator, full curve, poor fit]"
O=C(Cn1cnnn1)OCC(=O)c1ccc(Cl)s1,inactive: 0.37%,
C=CCn1c(SCc2ccc3nonc3c2)nnc1-c1cccs1,,"inconclusive [activator, partial curve]"
CC1CCCC(C)N1C(=O)CN1CCN(c2nc(-c3ccc(F)cc3)cs2)CC1 (centres undefined),,"inconclusive [activator, single point]"
Cc1nn(C)cc1CN(C)C(=O)c1sc2cccc(Cl)c2c1Cl,,"inconclusive [activator, single point]"
Cc1cccc(-c2noc(CN(C(=O)c3ccc(Br)o3)C(C)C)n2)c1,,"inconclusive [activator, partial curve]"
CCCC(c1nnnn1Cc1ccccc1)N1CCC(C(N)=O)CC1 (centres undefined),,"inconclusive [activator, single point]"
O=C(Cn1nc(C(=O)O)c2ccccc2c1=O)NCCC1=CCCCC1,inactive: 20.7%,
O=C(NCCCCN1CCCC1)c1ccc(Cc2nc3ccccc3[nH]2)cc1,inactive: 11.5%,
CS(=O)(=O)N(CC(=O)N1CCN(c2ccccc2F)CC1)c1cc(C(F)(F)F)ccc1Cl,,"inconclusive [activator, single point]"
CC1CCCN(c2nc3c(c(=O)[nH]c(=O)n3C)n2Cc2ccccc2Cl)C1 (centres undefined),,"inconclusive [activator, single point]"
COc1ncc2nc(-c3ccc(F)cc3)c(=O)n(C[C@H]3CCCO3)c2n1,,"inconclusive [activator, full curve]"
O=C(c1cccs1)N(Cc1nc2sc3c(c2c(=O)[nH]1)CCCC3)C1CCCC1,,"inconclusive [activator, partial curve]"
CCCn1c(NC(=O)c2cccc(S(=O)(=O)N3CCCC3)c2)nc2ccccc21,,active: 15.8 µM
